Data published in PubChem BioAssay AID504832 (National Center for Advancing Translational Sciences (NCATS), 2011).
The campaign covered roughly 310,000 compounds. About 18,000 (5.8%) were called active. Inconclusive means that the source gave no clear call. Such entries were picked first, then a sample of the others. Calls follow the shape of the dose curve; as a rule, active = well fitted inhibition curve with a large enough effect; inconclusive = small, poorly fitted or top-dose-only effect, or another doubt; inactive = no such curve, though single readings can be large or run the other way. No potency is given beside an inconclusive call; the fits are too rough.

Assay: Primary qHTS for delayed death inhibitors of the malarial parasite plastid, 48 hour incubation
Settings: P. falciparum luciferase growth in erythrocytes; series mostly up to 28.7 µM
Method in brief: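 Luminescence readout; reporter = integrated firefly luciferase in P. falciparum. RBC culture at 2% hematocrit, 0.1% parasitemia final, 37 C/5% CO2; decreased signal taken as growth inhibition.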
Potency is read from the fitted curve at half-maximal effect; tags tell the direction and shape of the fitted curve.

Row | SMILES | Potency
1 | Cc1cc(C)c(C(=O)c2ccc(C(=O)N3CCCCC3)cc2)c(C)c1 | inconclusive [inhibitor, single point]
2 | COc1ccc(C)cc1S(=O)(=O)N(CC(=O)Nc1cc([N+](=O)[O-])ccc1C)c1ccc(C)c(C)c1 | active: 10.4 µM
3 | CC1(C)NC(=O)N(CCCCOc2ccc(Cl)cc2C=O)C1=O | inconclusive [inhibitor, partial curve]
4 | Cc1ccc(CSCc2ccc(C(=O)NCCC(C)C)o2)cc1 | inconclusive [inhibitor, single point]
5 | CCOC(=O)C1C(=O)NC(N2CCN(Cc3ccccc3)CC2)=NC1c1ccco1 (stereo not given) | inconclusive [inhibitor, partial curve, poor fit]
6 | CCOC(=O)c1cnn(C)c1NC(=O)c1ccc([N+](=O)[O-])cc1 | inactive
7 | CCSc1nc2cc(OC)c(OC)cc2c(=O)n1CC | inactive
8 | CC1(c2ccc(OC(F)F)cc2)NC(=O)N(CC(=O)Nc2cccnc2Cl)C1=O (stereo not given) | inactive
9 | COc1ccc(CCNc2nc(-c3ccc(NC(C)=O)cc3)cs2)cc1OC | inconclusive [inhibitor, single point]
10 | NC(=O)CC(NC(=O)c1ccccc1)c1ccc(NCc2ccc(F)cc2)c([N+](=O)[O-])c1 (stereo not given) | inconclusive [inhibitor, single point]
11 | O=C(CSc1ccc2c(c1)OCCO2)Nc1ccc(Br)cn1 | inactive
12 | COc1ccc2oc(C(=O)N(C)CCOc3ccc(Cl)cc3)c(C)c2c1 | inconclusive [inhibitor, full curve, poor fit]
13 | Cc1ccc2nc(SCC(=O)c3ccc4c(c3)OCO4)[nH]c2c1 | inconclusive [inhibitor, single point]
14 | CS(=O)(=O)N1CCC(C(=O)NCc2ccc(Cl)cc2)CC1 | active: 2.33 µM
15 | CCOC(=O)c1[nH]c(C)c(C(=O)NC)c1C | inactive
16 | Cc1ccc(NC(=O)Cc2n[nH]c(=O)c3ccccc23)cc1S(=O)(=O)N1CCCCCC1 | inconclusive [inhibitor, single point]
17 | CCCC(c1nnnn1CS(=O)(=O)c1ccc(C)cc1)N1CCN(c2ccccc2)CC1 (stereo not given) | active: 11.7 µM
18 | O=C(c1ccc(-c2ccccc2)cc1)N1CCCC1 | inactive
19 | CN(C)CCn1c2c(c(SCC(=O)Nc3cccc4ccccc34)nc1=O)CCCC2 | inconclusive [inhibitor, single point]
20 | Cc1ccc(C2=NN(C(=O)CCCC(=O)O)C(c3ccc4c(c3)OCO4)C2)cc1 (stereo not given) | inactive
21 | O=C(c1nnc(Cc2ccc(Cl)cc2)o1)N1CCc2ccccc2C1 | inactive
22 | CC(NC(=O)c1ccc(S(=O)(=O)Nc2ccccc2)cc1)c1ccc(S(N)(=O)=O)cc1 (stereo not given) | inconclusive [inhibitor, single point]
23 | Cc1c(C(=O)OCC(=O)N(C)Cc2ccc(Cl)cc2)oc2ccccc12 | inactive
24 | CC(C)Oc1ccc(C(=O)N2CCCc3ccccc32)cc1 | inconclusive [inhibitor, single point]

Row | SMILES | Potency
25 | CCNC(=S)N/N=C/c1ccc(OCc2ccc(C(=O)OC)cc2)cc1 | inactive
26 | COc1cc(C(C(=O)NC2CCCC2)N(CCO)C(=O)Cn2nnc(-c3ccc(C)o3)n2)ccc1O (stereo not given) | inactive
27 | CCCC(=O)n1nc(-c2ccco2)nc1SCc1ccccc1 | inactive
28 | Cc1onc(-c2ccccc2)c1C(=O)Nc1sc2c(c1C#N)CCC2 | inactive
29 | CC(=O)c1ccc(NC(=O)C(C)OC(=O)C2CCN(c3ccc(C(F)(F)F)cn3)CC2)cc1 (stereo not given) | inconclusive [inhibitor, single point]
30 | CCOP(=O)(OCC)c1cc(C)c(O)c(C(C)(C)C)c1 | inconclusive [inhibitor, partial curve]
31 | OCCN1CCN(c2ncnc3c2sc2nc(N4CCOCC4)c4c(c23)CCC4)CC1 | active: 13.1 µM
32 | COc1ccccc1N1CCN(/N=C/c2cc(Br)ccc2F)CC1 | inactive
33 | O=S(=O)(Nc1nc2ccccc2nc1NCC1CCCO1)c1cc(Cl)ccc1Cl (stereo not given) | inactive
34 | Cc1ccc2nc(-c3cccc(Br)c3)cc(C(=O)NC3CC3)c2c1 | active: 4.65 µM
35 | COc1ccc(-n2nc(C(=O)NCC(=O)N3CCN(c4ccccc4OC)CC3)c3ccccc3c2=O)cc1OC | active: 1.65 µM
36 | COc1ccccc1-c1nnc(SCC(=O)c2ccc(C3CCCCC3)cc2)n1Cc1ccco1 | inconclusive [inhibitor, single point]
37 | O=C1CCN(Cc2ccccc2)CCN1[C@H](COc1ccccc1)c1ccccc1 | inconclusive [inhibitor, partial curve]
38 | Cc1ccc(S(=O)(=O)N2CCCC2)cc1C(=O)NCCN1CCOCC1 | inconclusive [inhibitor, single point]
39 | NC(=O)c1ccc(NC(=O)c2cncn2-c2ccccc2)cc1 | inconclusive [inhibitor, full curve, poor fit]
40 | Cc1cc(=O)oc2cc(OCC(=O)N3CCC(C(=O)O)(c4ccccc4)CC3)ccc12 | inconclusive [inhibitor, single point]
41 | Cn1c(SCC(=O)N2CCN(S(=O)(=O)c3ccccc3)CC2)nc2ccccc21 | inconclusive [inhibitor, partial curve]
42 | NCc1c(O)ccc2ccccc12 | inactive
43 | Cc1ccc(COC(=O)Cc2coc3cc(O)ccc23)cc1 | inactive
44 | CCN(CC)c1ccc(S(=O)(=O)N2CCOCC2)cc1NC(=O)CSC(=S)N1CCCC1 | inconclusive [inhibitor, partial curve, poor fit]
45 | COc1ccc(OC)c(S(=O)(=O)Nc2cc(OC)c(Cl)cc2OC)c1 | inactive
46 | CCc1ccccc1NC(=O)C1CCCN(S(=O)(=O)c2c(C)noc2C)C1 (stereo not given) | inconclusive [inhibitor, full curve, poor fit]
47 | COc1ccc(OCC(=O)N(Cc2cccs2)C2CCS(=O)(=O)C2)cc1 (stereo not given) | inconclusive [inhibitor, partial curve, poor fit]
48 | CC1(C)CC(=O)C2=C(C1)Nc1[nH]n(-c3ccccc3)c(=O)c1C2c1ccc2c(c1)OCO2 (stereo not given) | inconclusive [inhibitor, partial curve]

Row | SMILES | Potency
49 | CCc1ccccc1Nc1nc(-c2cccnc2)cs1 | active: 11.7 µM
50 | COc1cccc(C2/C(=C(/O)c3cnn(-c4ccccc4)c3C)C(=O)C(=O)N2CCN(C)C)c1OC (stereo not given) | inconclusive [inhibitor, full curve, poor fit]
51 | Cc1nnc2c(NCC(C)c3ccccc3)nc3ccccc3n12 (stereo not given) | inconclusive [inhibitor, single point]
52 | O=C(C1=COCCO1)N1CCN(C(c2ccccc2)c2ccccc2)CC1 | inconclusive [inhibitor, partial curve, poor fit]
53 | O=C(Nc1ccc(Cl)c(Cl)c1)N1CC=CCC1 | inactive
54 | COc1ccc2c(CC(=O)NCCN3C(=O)S/C(=C\c4cccnc4)C3=O)coc2c1 | inconclusive [inhibitor, single point]
55 | CCN(CC)S(=O)(=O)c1cc(NC(=O)C(C)N(C)CC(=O)Nc2c(C)cccc2C)ccc1C (stereo not given) | active: 11.7 µM
56 | Cc1nonc1OCCNCc1c(C(=O)N2CCCCCCC2)nc2ccc(Cl)cn12 | active: 3.7 µM
57 | Cc1cc(-c2nn(-c3ccccc3F)cc2CN2CCC(O)CC2)c(C)s1 | inconclusive [inhibitor, single point]
58 | CC(C)CCNc1nc(N2CCCC2)c2c(c1C#N)CCN(C)C2 | inconclusive [inhibitor, partial curve, poor fit]
59 | CC(Oc1ccccc1)C(=O)N=C1SC2CS(=O)(=O)CC2N1CCc1ccccc1 (stereo not given) | inconclusive [inhibitor, single point]
60 | Cc1cc(C)c2ccc(=O)n(CC(=O)N/N=C/c3ccccc3Cl)c2n1 | active: 2.62 µM
61 | CCCSc1nc(SCC(=O)NCc2ccccc2)c2c3c(sc2n1)COC(C)(C)C3 | inconclusive [inhibitor, partial curve, poor fit]
62 | Cc1ccnc2nc(C(=O)OCC(=O)Nc3ccc([N+](=O)[O-])cc3Br)nn12 | inconclusive [inhibitor, partial curve, poor fit]
63 | Cc1ccc2[nH]c(=O)c(CN(CCc3ccccc3)C(c3nnnn3Cc3ccco3)C(C)C)cc2c1 (stereo not given) | active: 3.29 µM
64 | Cc1ccccc1Cn1c2ccccc2c2cnn(CC(=O)NCCCN3CCN(C)CC3)c(=O)c21 | inconclusive [inhibitor, single point]
65 | Cc1ccc(S(=O)(=O)N(C)c2ccc(C(=O)NCc3ccccc3F)cc2)cc1 | inconclusive [inhibitor, single point]
66 | COC(=O)c1ccc(-c2ccc(C(c3c(C)[nH][nH]c3=O)c3c(C)[nH][nH]c3=O)o2)cc1 | inactive
67 | COc1ccc(N(C(=O)c2snc(C(N)=O)c2N)C(C(=O)NCC2CCCO2)c2ccc3ncccc3c2)cc1OC (stereo not given) | inconclusive [inhibitor, single point]
68 | Cc1ccc(C(=O)NNC(=O)c2ccc(C)cc2)cc1 | inactive
69 | Cc1ccc(N(CC(=O)NCc2ccc(F)cc2)C(=O)c2csnn2)cc1C | inactive
70 | Cc1ccc(S(=O)(=O)Nc2ccc(NC(=O)c3cccs3)cc2)cc1 | inconclusive [inhibitor, single point]
